Test results from PubChem BioAssay AID485294 (National Center for Advancing Translational Sciences (NCATS), 2010).
Among all 370,000 compounds or so, about 150 (0.041%) were called active. Inconclusive results, whose numbers are uncertain, are shown with a selection of clear calls. Calls come from the whole dose curve; as a rule, active = well fitted inhibition curve with a large enough effect; inconclusive = small, poorly fitted or top-dose-only effect; inactive = flat fitted curve, though single readings scatter. No potency is given beside an inconclusive call; the fits are too rough.
Note: nearly all actives have a fitted effect of over 25% in size.
Potency is the fitted concentration of half-maximal effect; tags give direction and shape of the fitted curve.

What follows are compounds tested against Beta-lactamase (Escherichia coli (strain K12)) (UniProt P00811) (assay: qHTS Inhibitors of AmpC Beta-Lactamase (assay with detergent)). Conditions: AmpC hydrolysis of nitrocefin, absorbance 480 nm, 0.01% Triton; series mostly up to 114 µM.
UniProt P00811, sequence (P00811 whole entry, looked up): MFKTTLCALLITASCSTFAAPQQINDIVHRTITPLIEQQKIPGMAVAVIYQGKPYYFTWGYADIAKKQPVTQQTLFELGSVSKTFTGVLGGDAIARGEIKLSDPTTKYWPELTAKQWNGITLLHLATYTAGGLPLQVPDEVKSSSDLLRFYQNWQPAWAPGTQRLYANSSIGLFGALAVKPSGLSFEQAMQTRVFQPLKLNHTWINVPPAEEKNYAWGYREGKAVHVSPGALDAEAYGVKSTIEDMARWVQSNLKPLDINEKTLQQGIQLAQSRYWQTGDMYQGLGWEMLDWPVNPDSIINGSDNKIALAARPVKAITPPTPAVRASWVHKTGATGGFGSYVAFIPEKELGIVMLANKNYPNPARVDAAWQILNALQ
Outline: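 AmpC (5.3 nM in the dispensed reagent) in 20 mM phosphate pH 7.0 with 0.01% (detergent screen) or 0.0001% Triton X-100 was preincubated with compounds for 15 min at room temperature. Nitrocefin was then added from an 800 uM solution, and hydrolysis was followed at 480 nm.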
For CN(C)C(=O)CSc1ccc(S(=O)(=O)N2CCCC2)cn1, the Potency was inconclusive [inhibitor, full curve, poor fit]. CCOC(=O)N1CCN(C(=O)c2ccc(NC(=O)CC)cc2)CC1 was tested, and the Potency was inconclusive [inhibitor, full curve, poor fit]. In the case of Cc1c(C(=O)N2CCC3(CC2)OCCO3)sc2ncnc(N(C)c3ccccc3)c12, the Potency is reported as inconclusive [inhibitor, partial curve, poor fit]. In the case of Cc1ccc(Cl)c(NC(=O)CN2CCNC(=O)C2)c1Cl, the Potency is reported as inconclusive [inhibitor, full curve, poor fit]. CC1=CC(C)(C)N(C(=O)CNC2CCCCC2)c2cc(C)ccc21 was tested, and the Potency was “inactive”. For CCOc1ccc(-c2nc(C#N)c(N3CCCCCC3)o2)cc1, the Potency was inconclusive [inhibitor, full curve, poor fit]. For O=C(CCNC(=O)C1CCN(S(=O)(=O)c2ccc(F)cc2)CC1)NCc1ccccc1Cl, the Potency was inconclusive [inhibitor, single point]. In the case of NC(=O)CC(NC(=O)Cc1ccc(Cl)cc1)c1ccc(N2CCC(Cc3ccccc3)CC2)c([N+](=O)[O-])c1 (stereo unspecified), the Potency is reported as inconclusive [inhibitor, full curve, poor fit]. In the case of Oc1[nH]c2ccccc2c1N=Nc1ccc(F)cc1, the Potency is reported as “inactive”. With CCOc1ccc2[nH]c(=O)c(CN(Cc3nnnn3CCc3ccccc3)CC3CCCO3)cc2c1 (stereo unspecified) the Potency was inconclusive [inhibitor, full curve, poor fit]. With N#CCCn1cc(C(=O)Nc2ccccc2Br)c(-c2ccc([N+](=O)[O-])cc2)n1 the Potency was inconclusive [inhibitor, full curve]. Cc1ccc(NC(=O)C(NC2CCCc3ccccc32)c2ccccc2)cc1Cl (stereo unspecified) was tested, and the Potency was inconclusive [inhibitor, full curve, poor fit]. For CCN(Cc1ccc(OC)c(COC)c1)CC1CCCN(CCc2cccc(F)c2)C1 (stereo unspecified), the Potency was “inactive”. With COCCCNc1nc(NCc2ccc(C)cc2)c2cnn(C)c2n1 the Potency was “inactive”. With CCOc1ccc(-c2nc(C#N)c(N3CCN(CC)CC3)o2)cc1 the Potency was inconclusive [inhibitor, full curve]. With O=C1NC(=O)C(Nc2cccc3ccccc23)S1 (stereo unspecified) the Potency was “inactive”. For O=C(COC(=O)CNS(=O)(=O)c1cccc(Br)c1)NC(=O)Nc1ccc2c(c1)OCCO2, the Potency was inconclusive [inhibitor, partial curve]. For CN1CCN(c2ccc(NC(=O)CN3CCOCC3)cc2F)CC1, the Potency was inconclusive [inhibitor, full curve, poor fit]. In the case of CCC(C)NC(=O)c1sc2nc3n(c(=O)c2c1C)CCC3 (stereo unspecified), the Potency is reported as “inactive”. For CC(=O)N1N=C(c2ccccc2)CC1c1ccccc1 (stereo unspecified), the Potency was inconclusive [inhibitor, full curve, poor fit]. In the case of COc1ccccc1C(CNC(=O)c1ccc(OCc2c(C)noc2C)cc1)N1CCCC1 (stereo unspecified), the Potency is reported as “inactive”. With CCOc1ccc(S(=O)(=O)NCc2ccc(OC)cc2)c2cccnc12 the Potency was inconclusive [inhibitor, partial curve, poor fit]. For O=C(CN1CCN(C(=O)c2ccco2)CC1)Nc1cccc(S(=O)(=O)N2CCCC2)c1, the Potency was “inactive”. For CCN(CC)CCN(C(=O)c1ccc2ncsc2c1)c1nc2cc3c(cc2s1)OCO3, the Potency was inconclusive [inhibitor, partial curve, poor fit]. With COc1ccc(Sc2nc(-c3ccccc3)ncc2OC)cc1 the Potency was inconclusive [inhibitor, full curve, poor fit]. In the case of CCOc1ccc(S(=O)(=O)N(CC)CC(=O)NCc2ccncc2)cc1, the Potency is reported as “inactive”. In the case of CCC(=O)N1c2ccc(C)cc2C2=NNC(=S)NC21O (stereo unspecified), the Potency is reported as inconclusive [inhibitor, single point]. With O=C(NC(c1ccccc1)c1ccccc1)C1CCCN(S(=O)(=O)c2cnc[nH]2)C1 (stereo unspecified) the Potency was inconclusive [inhibitor, partial curve]. For Cc1ccnc(NS(=O)(=O)c2ccc(NS(=O)(=O)c3ccccc3)cc2)n1, the Potency was inconclusive [inhibitor, partial curve]. In the case of O=C(NCc1ccc(Cl)cc1)c1ccc(S(=O)(=O)N2CCCCC2)cc1, the Potency is reported as inconclusive [inhibitor, full curve, poor fit]. In the case of c1nnc(NC2=NCCCCC2)s1, the Potency is reported as “inactive”. In the case of O=C(CN1CCN(CC(=O)c2ccc(F)cc2)CC1)Nc1ccccc1Cl, the Potency is reported as “inactive”. In the case of C=CCn1c(SCc2nc3ccccc3[nH]2)nnc1-c1cccc(OC)c1, the Potency is reported as inconclusive [inhibitor, partial curve, poor fit]. For CC(C)n1c(/N=C/c2ccccc2O)nc2ccccc21, the Potency was inconclusive [inhibitor, partial curve, poor fit]. In the case of C=CCN1C(=O)C(CC(=O)Nc2ccc(OCCC)cc2)N(CCCN2CCN(Cc3ccccc3)CC2)C1=S (stereo unspecified), the Potency is reported as inconclusive [inhibitor, single point]. O=C(Nc1ccc2c(c1)nc1n2CCN(Cc2ccccc2)C1)NC1CCCCC1 was tested, and the Potency was “inactive”. O=C(c1n[nH]c2ccccc12)N1CCCCC1 was tested, and the Potency was inconclusive [inhibitor, full curve, poor fit]. For O=C(COC(=O)c1cccnc1Nc1cccc(C(F)(F)F)c1)NCc1ccc2c(c1)OCO2, the Potency was inconclusive [inhibitor, partial curve]. For COc1ccc(NS(=O)(=O)c2ccc(OCC(=O)N3CCOCC3)cc2)cc1, the Potency was inconclusive [inhibitor, partial curve]. For O=C1CCC([N+](=O)[O-])C(c2ccccc2Cl)N1 (stereo unspecified), the Potency was inconclusive [inhibitor, single point]. For Cc1cc(Cl)ccc1NC(=O)CN1C(=O)NC2(CCCc3ccccc32)C1=O (stereo unspecified), the Potency was “inactive”. In the case of Oc1ccc(-c2nccc(-c3ccc(Br)cc3)n2)cc1, the Potency is reported as “inactive”. For O=C(NCCCN1CCOCC1)C1CCC(=O)N1CCc1ccccc1 (stereo unspecified), the Potency was inconclusive [inhibitor, full curve, poor fit]. With O=C(c1ccc(COc2ccccc2Br)o1)N1CCN(c2ccccn2)CC1 the Potency was inconclusive [inhibitor, full curve, poor fit]. CN(C)C(=O)C1C2NC(=S)N(c3ccccc3)C1(C)Oc1ccccc12 (stereo unspecified) was tested, and the Potency was inconclusive [inhibitor, single point]. COC(=O)c1cc(C(=O)OC)n(Cc2ccc(C)cc2)c1C was tested, and the Potency was inconclusive [inhibitor, partial curve, poor fit]. With COc1cccc2cc(-c3cc(=O)oc4cc(C)c(OCC(C)=O)cc34)oc12 the Potency was inconclusive [inhibitor, full curve, poor fit]. In the case of COc1cc(/C=C/CO)cc(OC)c1O[C@@H]1O[C@H](CO)[C@@H](O)[C@H](O)[C@H]1O, the Potency is reported as inconclusive [inhibitor, partial curve, poor fit]. CC1SCC(=O)N(CC(=O)NCc2ccccc2)C1=O (stereo unspecified) was tested, and the Potency was inconclusive [inhibitor, full curve]. With COc1ccc(CNC(=O)CN2CCN(S(=O)(=O)c3ccccc3)CC2)cc1 the Potency was inconclusive [inhibitor, full curve, poor fit]. In the case of COc1ccc(S(=O)(=O)N2CC3CCCN3c3cc(C(F)(F)F)ccc32)cc1 (stereo unspecified), the Potency is reported as inconclusive [inhibitor, partial curve]. For c1ccc(-c2ccc(OCCCn3cncn3)cc2)cc1, the Potency was inconclusive [inhibitor, single point]. With O=C(CN1C(=O)C2C3CCC(C3)C2C1=O)OCC(=O)c1ccccc1 (stereo unspecified) the Potency was inconclusive [inhibitor, partial curve]. With Cc1ccc(S(=O)(=O)c2cc3cc(C(=O)Nc4ccc(C)cc4C)ccc3oc2=O)cc1 the Potency was “inactive”. Cc1occc(=O)c1OC(=O)Nc1ccccc1 was tested, and the Potency was inconclusive [inhibitor, full curve, poor fit]. CC1CCCN(C(=O)COC(=O)c2ccc3[nH]c4c(c3c2)CCCC4)C1 (stereo unspecified) was tested, and the Potency was inconclusive [inhibitor, single point]. With COC(=O)C1CSC(c2ccc(Cl)cc2)N1C(=O)c1ccccc1 (stereo unspecified) the Potency was “inactive”. In the case of CCOC(=O)c1c(C)n(C)c2ccc(O)c(CN3CCN(C)CC3)c12, the Potency is reported as inconclusive [inhibitor, partial curve, poor fit]. In the case of COc1cc(OC)cc(Oc2ccc(S(=O)(=O)N3CCCCC3)cc2[N+](=O)[O-])c1, the Potency is reported as inconclusive [inhibitor, full curve, poor fit]. With Cc1ccc(SC(C)C(=O)Nc2ccccc2-c2ccccc2)cc1 (stereo unspecified) the Potency was inconclusive [inhibitor, partial curve]. For Cc1cccc(-c2nc(CN3CCCC(C(=O)NC4CCCCC4)C3)c(C)o2)c1 (stereo unspecified), the Potency was “inactive”. In the case of COc1ccc(N2C(=O)CCC(C(=O)NCc3ccccn3)C2c2ccc(OC)c(OC)c2)cc1 (stereo unspecified), the Potency is reported as inconclusive [inhibitor, full curve]. FC(F)(F)c1ccc2c(c1)NP(=S)(N1CCOCC1)c1nccn1-2 (stereo unspecified) was tested, and the Potency was inconclusive [inhibitor, full curve]. For Cc1cccc(CNC(=O)CN2C(=O)CSc3c2c(C)nn3-c2ccccc2)c1, the Potency was “inactive”. In the case of O=C(O)CCC(=O)Nc1ccccc1C(=O)NC1CCCCC1, the Potency is reported as inconclusive [inhibitor, full curve, poor fit]. For CN(C(=O)CCn1c(=S)oc2ccccc21)c1ccc(F)cc1, the Potency was “inactive”.
